The source gives no read counts; variants with many changes may rest on few reads.
B1: CPEB3 Ribozyme (parent)
chain: UAACAGGGGGCCACAGCAGAAGCGUUCACGUCGCAGCCCCUGUCAGAUUCUGGUGAAUCUGCGAAUUCUGCUGUAUAUCUC

Variants of: B1
Assay: self-cleavage, relative activity (ratio to wild type); higher = more cleavage; in vitro, sequencing
Procedure, shortened: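 CPEB3 self-cleaving ribozyme mutant libraries were made by rounds of error-prone PCR, barcoded, and transcribed in vitro with T7 RNA polymerase for 5 hours at 37°C. Cleavage occurred during transcription and a 15 min DNase I step before EDTA stop. RNAs were reverse transcribed with template switching and Illumina-sequenced, with DNA sequencing mapping barcodes to variants. Relative activity is the variant's cleaved/total read fraction divided by wild type's (minimum 5 reads), averaged across three batches.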

Row | Variant | self-cleavage
1 | A21G U25A U54G | 0.32
2 | A21G U25A U54C | 0.12
3 | A21G C29U A35G U60G | 0.2
4 | A21G G24A U43C U48A | 0.19
5 | A21G C23U U41A A56G | 0.11
6 | A21G U25C A75U | 0.37
7 | A21G U25C C44U U72A | 0.34
8 | A21G U25C U54A A77C | 0.23
9 | A21G U25A U31A U80C | 0.48
10 | A21G C62U A77G | 0.16
11 | A21G G33A G52A U76A | 0.1
12 | A21G U31C U54C A75U | 0.3
13 | A21G C37U U54C G55U U74C | 0.17
14 | A21G C23U U43C G52C A64U U78A | 0.06
15 | A21G C38U A45G G61A U66C | 0.14
16 | A21G U26A U60C U66C U72A U80A | 0.27
17 | A21G C29U A65U U67C | 0.09
18 | A21G U26A U31A A35U C62A U78A | 0.1
19 | A21G G33A U76A | 0.14
20 | A21G U26A U31G U41A | 0.33
21 | A21G G46U U51C A56G | 0.17
22 | A21G C39U U41C U54G A77G | 0.24
23 | A21G U26C A56U U66C U69C | 0.11
24 | A21G U26C A45U | 0.19

Row | Variant | self-cleavage
25 | A21G G53U A77G | 0.61
26 | A21G U26G U78C | 0.16
27 | A21G U25C U60C | 0.21
28 | A21G U26A A47G U54A U69C | 0.36
29 | A21G C62U U69A | 0.13
30 | A21G G30A U54C A56U U66C U78A | 0.05
31 | A21G C40U G46A | 0.21
32 | A21G U26A A35U | 0.31
33 | A21G C44U A45G | 0.21
34 | A21G U26A U58A | 0.18
35 | A21G G24A C40U A56G | 0.39
36 | A21G C23U G53C A75G | 0.14
37 | A21G U25A A28G U41A U51A | 0.35
38 | A21G U31C G36U U60C U66G | 0.11
39 | A21G G63U A64C A77U | 0.09
40 | A21G G42A A47G | 0.07
41 | A21G G24A A35U G36A A45U A57G | 0.15
42 | A21G U26A U41C A75G | 0.47
43 | A21G U25A U78C | 0.19
44 | A21G G42A A75G U80C | 0.05
45 | A21G U25C U41C | 0.34
46 | A21G C29U A35G U41C | 0.56
47 | A21G G22A C32U | 0.08
48 | A21G U26A U41G A45U G63U U69C | 0.04

Row | Variant | self-cleavage
49 | A21G U26C A35U C50A A77U | 0.28
50 | A21G G24A U31A U43C U48A U58C | 0.2
51 | A21G U25C U51C A64G U80C | 0.07
52 | A21G U26G U31A U48C A65U | 0.06
53 | A21G U25A U41C U51A C79U | 0.02
54 | A21G U31A A56G | 0.53
55 | A21G U25A U26C A35G | 0.07
56 | A21G C39G U69C U72C | 0.17
57 | A21G U25A A47G U54C | 0.18
58 | A21G G22C C32U U41C A45U G63A | 0.24
59 | A21G C44U C62U U72A | 0.04
60 | A21G G30A U76C U78C | 0.07
61 | A21G G55C A75G | 0.52
62 | A21G U26A U72A | 0.18
63 | A21G C50U A56G U80A | 0.27
64 | A21G C23U A28G A47G | 0.03
65 | A21G U26C A28C A35G | 0.26
66 | A21G U25C U41C U48C U67C U72C | 0.25
67 | A21G G55C A56G A57G U66A U80C | 0.12
68 | A21G C23U U58C C68A U69A U74A | 0.01
69 | A21G C39U G52A U72A | 0.11
70 | A21G U25A G52U | 0.16
71 | A21G U26C C44A U49C | 0.1
72 | A21G U31C A75G | 0.09

Row | Variant | self-cleavage
73 | A21G C34G U74C | 0.1
74 | A21G U25A C40U U43C G46C | 0.16
75 | A21G G52A C62A | 0.49
76 | A21G G24C U31C C62U | 0.16
77 | A21G C38U A45U | 0.28
78 | A21G G30U C38U U48C | 0.08
79 | A21G C40U U60C U78C | 0.06
80 | A21G C32A A77G | 0.19
81 | A21G U31C U54C A65G | 0.13
82 | A21G C34U U48C | 0.19
83 | A21G G42U G53A | 0.26
84 | A21G C29U A35U A47G U66A C81U | 0.04
85 | A21G U25C A28G U41A A64G | 0.23
86 | A21G U26A U60A | 0.09
87 | A21G U26C A35G | 0.65
88 | A21G G22C U43C U78C | 0.08
89 | A21G U25C A28U G36U U48C U76C | 0.04
90 | A21G G30A A45U U54C U69G | 0.06
91 | A21G C50A U72C U80A | 0.44
92 | A21G C23U C29U G55U U72C | 0.08
93 | A21G G24C A35G A45G A64U | 0.05
94 | A21G U31A G61A U78C | 0.15
95 | A21G G33C U43C U67C U72A | 0.05
96 | A21G U25C A57G U72C | 0.14

Row | Variant | self-cleavage
97 | A21G U25C U49C U74C U80C | 0.31
98 | A21G U25A G33A U76C | 0.06
99 | A21G U26C U51C U66A A77U | 0.08
100 | A21G C34U U72A | 0.07
101 | A21G G33A U66G | 0.08
102 | A21G U26A U43C U51A | 0.08
103 | A21G U25C U43C A64G U80C | 0.54
104 | A21G U25A U26C U54C U69A | 0.04
105 | A21G C27U A35C A56U U60C | 0.13
106 | A21G U25C U80A | 0.36
107 | A21G C27U G55A | 0.04
108 | A21G U25C C40G U41A U72C A77G | 0.25
109 | A21G U31A A65G | 0.22
110 | A21G U25C U43A A64G U76C | 0.16
111 | A21G C59U U72A U74C | 0.38
112 | A21G U25C U31A U41C G55A U72A | 0.12
113 | A21G U26C U60C | 0.34
114 | A21G U25A U51G A56U A75U | 0.08
115 | A21G G36A U60C U78C | 0.05
116 | A21G C23G A64G U69A U72C | 0.13
117 | A21G U25C A65G U67C | 0.14
118 | A21G U26A A47U U49C A75G | 0.17
119 | A21G U31C U41A U54C U66C | 0.2
120 | A21G U25C U43C U80C | 0.47

Row | Variant | self-cleavage
121 | A21G U25C U72C | 0.36
122 | A21G U25C U72A | 0.49
123 | A21G U25C U60C A65G | 0.02
124 | A21G U25C U43A U60C U72C A75G | 0.11
125 | A21G C23U U26C U69C | 0.18
126 | A21G C44G U58C | 0.22
127 | A21G U26A A47G U60G U74C A77G | 0.15
128 | A21G C29U C32A U43C A45G A64G U78C | 0.03
129 | A21G U31C A45U | 0.22
130 | A21G C29U U31A U41C G52C A64C | 0.08
131 | A21G U31C A35U U60A | 0.05
132 | A21G U26C U60C U69C G73A | 0.13
133 | A21G U26A U43A U49C | 0.1
134 | A21G U26C A28U | 0.19
135 | A21G U31C A35U | 0.22
136 | A21G U31C A35G | 0.32
137 | A21G G24C U60A U80C | 0.07
138 | A21G U25C A28G A35U U72C | 0.07
139 | A21G G30U A77G | 0.18
140 | A21G U25A G30A U69A U74C | 0.18
141 | A21G C34U G42U U43C U60A | 0.12
142 | A21G G46U U49C | 0.19
143 | A21G U26C A35G A47G | 0.46
144 | A21G G22A U76C | 0.1

Row | Variant | self-cleavage
145 | A21G U25C U41C U60C | 0.14
146 | A21G G24C G36C | 0.16
147 | A21G U25C A65G U76C | 0.05
148 | A21G U26C A28G C50U A57U | 0.09
149 | A21G U26C U69A U80C | 0.46
150 | A21G G53U A57U U67C U72A | 0.1
151 | A21G C29U C32G A47U U72C | 0.04
152 | A21G U26C C29U A64G U69C | 0.26
153 | A21G U25A G30U C39U A45G A64G U80C | 0.09
154 | A21G U26A C62U | 0.09
155 | A21G U26C U49C | 0.15
156 | A21G G33A U51C A56G | 0.05
157 | A21G C38U U54C A56G | 0.12
158 | A21G C29U U41G A65G U76C A77C | 0.04
159 | A21G G24C C32U A45G A56G U66C | 0.08
160 | A21G G24A U69A | 0.14
161 | A21G U31A U41G U66C U78C U80C | 0.08
162 | A21G U25A U31C G36U | 0.05
163 | A21G U25C U43C U51A | 0.11
164 | A21G U25C U43C U51C | 0.37
165 | A21G U26C A45U A47C U51C U76A | 0.1
166 | A21G G22U G33C G55C | 0.12
167 | A21G C29U U67C U78C | 0.15

Reference: the RNAGym collection of RNA variant scans (doi:10.1093/nar/gkz1192)
